Measured values taken from PubChem BioAssay AID1468 (National Center for Advancing Translational Sciences (NCATS), 2008).
In all, about 280,000 compounds went through this assay and about 1,100 (0.39%) were called active. This list was built around the results that the source calls inconclusive (neither active nor inactive); the mix of calls is not that of the screen. Calls come from the whole dose curve; as a rule, active = well fitted inhibition curve with a large enough effect; inconclusive = small, poorly fitted or top-dose-only effect, or effect the other way; inactive = flat fitted curve, though single readings scatter. No potency is given beside an inconclusive call; the fits are too rough.

Target: Microtubule-associated protein tau (Homo sapiens) (UniProt P10636)
Assay: qHTS for Inhibitors of Tau Fibril Formation, Fluorescence Polarization; note: nearly all actives have a fitted effect of over 55% in size
Details: K18 P301L tau heparin fibrillization, Alexa594 FP, 6 h; series mostly up to 57.7 µM
Text: NIH Molecular Libraries Probe Production Network [MLPCN]
NIH Chemical Genomics Center [NCGC]
Assay Provider: Carlo Ballatore, University of Pennsylvania
The microtubule-associated protein tau is an abundant protein in the axons of neurons that stabilizes microtubules. With its ability to modulate microtubule dynamics, tau contributes directly or indirectly, to key structural and regulatory cellular functions. Particularly important is the influence tau exerts on axonal transport, which allows signaling molecules, trophic factors and other essential cellular constituents to travel along the axons. Under pathological conditions, tau becomes sequestered into insoluble aggregates called neurofibrillary tangles. This phenomenon is believed to have pathological consequences by promoting axonal transport deficits that ultimately lead to synaptic dysfunction and neuronal loss. To identify inhibitors of tau aggregation, a heparin-induced tau fibril formation assay was used that employed a recombinantly expressed fragment of tau, K18 (Q242-E372), bearing a P301L mutation (Gustke et al. 1994; Hong et al. 1998).
Gustke, N., B. Trinczek, et al. (1994). "Domains of tau protein and interactions with microtubules." Biochemistry 33(32): 9511-22.
Hong, M., V. Zhukareva, et al. (1998).
Li, W. and V. M. Lee (2006). "Characterization of two VQIXXK motifs for tau fibrillization in vitro." Biochemistry 45(51): 15692-701.
von Bergen, M., S. Barghorn, et al. (2001). "Mutations of tau protein in frontotemporal dementia promote aggregation of paired helical filaments by enhancing local beta-structure." J Biol Chem 276(51): 48165-74.
NCGC Assay Protocol Summary:
For screening, 2 uL/well human K18 P301L (15 uM unlabeled and 0.24 uM Alexa 594-labeled tau final concentrations) in reagent buffer (100 mM sodium acetate pH 7) was dispensed into black solid 1536-well plates (Grenier) using a solenoid-based dispenser. Following transfer of 23 nL compound or DMSO vehicle by a pin tool, 2 uL/well heparin (20 uM final concentration) in reagent buffer was added and the plate centrifuged 15 s at 1000 RPM. Plates were incubated 6 hr at 37 C and then 1 uL/well ThT (30 uM final concentration) was added. After a 1 hr ambient incubation, the plates were read by an Envision (Perkin Elmer) to monitor Alexa 594 FP (555 nm excitation and 632 nm emission).
Keywords: NIH Roadmap, MLPCN, MLI, MLSMR, NCGC, qHTS, tau, tauopathies, Alzheimer's disease, fibril, neurodegeneration, aggregation
Potency is the fitted concentration of half-maximal effect; tags give direction and shape of the fitted curve.

Sequence of UniProt P10636 (P10636 whole entry, looked up): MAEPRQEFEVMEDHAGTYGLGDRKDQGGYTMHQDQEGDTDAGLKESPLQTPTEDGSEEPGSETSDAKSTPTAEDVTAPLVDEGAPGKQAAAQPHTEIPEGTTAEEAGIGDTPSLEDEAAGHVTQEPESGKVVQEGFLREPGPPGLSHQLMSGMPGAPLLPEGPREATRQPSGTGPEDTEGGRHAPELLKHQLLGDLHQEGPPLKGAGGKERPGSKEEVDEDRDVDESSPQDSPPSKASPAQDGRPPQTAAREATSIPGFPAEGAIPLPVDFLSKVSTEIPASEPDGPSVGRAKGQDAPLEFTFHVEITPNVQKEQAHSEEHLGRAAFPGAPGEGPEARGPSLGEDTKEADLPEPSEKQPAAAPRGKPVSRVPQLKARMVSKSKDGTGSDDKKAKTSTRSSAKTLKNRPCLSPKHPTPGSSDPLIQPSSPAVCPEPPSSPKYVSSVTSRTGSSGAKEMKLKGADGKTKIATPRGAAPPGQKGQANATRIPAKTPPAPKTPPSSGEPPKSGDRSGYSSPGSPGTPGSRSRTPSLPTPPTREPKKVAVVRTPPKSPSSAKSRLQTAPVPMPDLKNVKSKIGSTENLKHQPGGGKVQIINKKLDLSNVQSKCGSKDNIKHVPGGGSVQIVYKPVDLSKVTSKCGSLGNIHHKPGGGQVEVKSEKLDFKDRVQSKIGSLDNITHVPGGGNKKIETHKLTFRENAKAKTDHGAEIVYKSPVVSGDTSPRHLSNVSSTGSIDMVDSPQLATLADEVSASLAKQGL

SMILES	Potency
Cn1nc(-c2ccccc2)c(-c2nc(-c3ccccc3Cl)no2)c1Cl	inconclusive [inhibitor, partial curve, poor fit]
O=C(CN1C(=O)CCC1=O)Nc1ccc(S(=O)(=O)N2CCOCC2)cc1	inconclusive [inhibitor, single point]
CC(C)OC(=O)NC(C)(C)COC(=O)Nc1cccc(Cl)c1	inconclusive [inhibitor, partial curve]
CSc1nc(N(CCO)CCO)c2sc3nc(-c4ccco4)c4c(c3c2n1)CCC4	inconclusive [inhibitor, single point]
O=C(O)c1ccc(N=C2SCC(=O)N2Cc2ccccc2)cc1	inactive
NC(=O)c1ccc(N=Nc2c(O)c3ccccc3[nH]c2=O)cc1	inconclusive [inhibitor, full curve, poor fit]
Fc1cccc(Cl)c1Cn1nnc2c(NCc3ccncc3)ncnc21	inconclusive [inhibitor, single point]
CCC(=O)C1=C(c2ccc(F)cc2)N(C(=O)CC)n2cnnc2S1	inconclusive [inhibitor, partial curve]
COc1ccc(CNC(=O)c2noc3c2CCCC3)cc1	inconclusive [inhibitor, single point]
Cc1ccc(C(=O)Nc2sc(C)c(-c3ccccc3)c2C(N)=O)cc1[N+](=O)[O-]	inactive
COc1cc(NC(C(=O)Nc2cccc(C(C)=O)c2)c2ccccc2)cc(OC)c1OC (centres undefined)	inconclusive [activator, single point]
COc1ccc(NS(=O)(=O)c2cccc(C(=O)O)c2)cc1	inactive
Cc1nc(SCc2cccc(Cl)c2)nc2c1CCCC2	inactive
CC(C)(C)NC(=O)C(c1cccs1)N(C(=O)c1csnn1)c1ccccc1F (centres undefined)	inactive
Cc1cccc(NC(=O)CSc2nc3ccc(NC(=O)c4ccccc4)cc3s2)c1	inconclusive [inhibitor, partial curve]
COc1cc(NC(=O)Cn2c(=O)cc(C)c3c(C)nn(-c4ccc(C)cc4)c32)cc(OC)c1	inconclusive [inhibitor, single point]
CC(=O)N1c2ccc(S(=O)(=O)N3CCCCCC3)cc2CC1C(=O)NCc1cccc(C)c1 (centres undefined)	inconclusive [inhibitor, single point]
COc1ccccc1-n1c(C)c2c(OC)cccc(=O)c2c1C	inactive
COc1ccc(COc2cc(-c3cccc(OC)c3)nc3ccc(NC(=O)c4ccc(N(C)C)cc4)cc23)cc1	inconclusive [activator, single point]
